Data reported in PubChem BioAssay AID720709 (National Center for Advancing Translational Sciences (NCATS), 2013).
The whole screen tested about 360,000 compounds, of which about 520 (0.14%) were called active. The inconclusive results got no clear call from the source; some entries with a clear call stand among them for comparison. The call rests on the fitted dose curve; in most records, active means well fitted inhibition curve with a large enough effect; inconclusive means small, poorly fitted or top-dose-only effect; inactive means no such curve, though single readings can be large or run the other way. Potencies beside an inconclusive call are fits to weak or partial responses and may not hold up.

The compounds below were run against Rap guanine nucleotide exchange factor 3 (Homo sapiens) (UniProt O95398) (assay: qHTS for Antagonist of cAMP-regulated guanine nucleotide exchange factor 3 (EPAC1): primary screen). Details: EPAC1 GEF assay, Rap1b-BODIPY-GDP exchange fluorescence; activity change, negative = inhibition: at 115 µM (top of the series).
UniProt O95398, sequence (O95398 whole entry, looked up): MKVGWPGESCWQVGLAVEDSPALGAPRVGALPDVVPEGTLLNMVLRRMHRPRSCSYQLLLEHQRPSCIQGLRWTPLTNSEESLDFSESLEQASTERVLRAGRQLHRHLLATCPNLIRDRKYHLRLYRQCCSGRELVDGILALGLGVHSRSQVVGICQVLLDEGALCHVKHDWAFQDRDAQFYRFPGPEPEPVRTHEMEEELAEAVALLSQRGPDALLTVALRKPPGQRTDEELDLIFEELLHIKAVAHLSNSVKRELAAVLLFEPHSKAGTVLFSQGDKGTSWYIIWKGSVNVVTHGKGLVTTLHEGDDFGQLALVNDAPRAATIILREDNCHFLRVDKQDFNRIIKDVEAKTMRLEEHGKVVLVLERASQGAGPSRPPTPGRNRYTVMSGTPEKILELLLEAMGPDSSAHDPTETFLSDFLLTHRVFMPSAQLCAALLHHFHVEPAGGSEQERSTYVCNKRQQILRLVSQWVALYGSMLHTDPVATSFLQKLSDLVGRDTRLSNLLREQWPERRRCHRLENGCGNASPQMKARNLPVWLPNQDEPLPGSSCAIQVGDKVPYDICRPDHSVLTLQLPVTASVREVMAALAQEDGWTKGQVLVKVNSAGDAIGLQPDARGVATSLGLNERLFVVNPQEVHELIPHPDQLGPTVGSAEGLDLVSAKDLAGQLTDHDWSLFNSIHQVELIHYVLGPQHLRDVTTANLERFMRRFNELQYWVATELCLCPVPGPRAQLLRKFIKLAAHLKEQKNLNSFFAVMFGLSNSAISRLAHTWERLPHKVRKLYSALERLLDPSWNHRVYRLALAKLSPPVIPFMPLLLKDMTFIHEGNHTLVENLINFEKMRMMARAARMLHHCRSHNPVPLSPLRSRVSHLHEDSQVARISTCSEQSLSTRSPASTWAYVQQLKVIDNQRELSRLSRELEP
Further: nearly all actives have a fitted effect of over 50% in size.
Potency means the concentration at half of the fitted maximal effect; tags describe the fitted curve by direction and shape.
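Wherever activity change, negative = inhibition is given: plate controls were vehicle for no effect and positive control for full effect.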

Potency, active:
O=C1CSC(=S)N1/N=C/c1ccc(O)c(O)c1O 25.1 µM

Potency, inconclusive:
Cc1ccc(CN2CCN(Cc3cccc(C)n3)CC2CCO)cc1 (configuration not stated) 100 µM [inhibitor, single point]
CCn1c(SCc2ccc(F)cc2)nc2c(c1=O)SCC2 44.7 µM [inhibitor, partial curve]
Cc1ccc(NC2c3ncccc3C(=O)N2Cc2cccs2)cc1 (configuration not stated) 79.4 µM [inhibitor, partial curve, poor fit]
Cc1ccc(S(=O)(=O)c2c[nH]c3ccc(Cl)cc3c2=O)cc1 100 µM [inhibitor, single point]
C=CCN(c1cccc(C(F)(F)F)c1)S(=O)(=O)c1cccc(C(=O)OCC(=O)NC(N)=O)c1 7.08 µM [inhibitor, full curve]
O=C(O)CCN1C(=O)/C(=C\c2cccc(Oc3ccccc3)c2)SC1=S 89.1 µM [inhibitor, single point]
Cc1ccc(S(=O)(=O)N2CCCCC2)cc1NC(=O)CSc1nncn1-c1ccccc1 56.2 µM [inhibitor, partial curve, poor fit]
Cc1ccnc(NS(=O)(=O)c2cccc([N+](=O)[O-])c2)c1 100 µM [inhibitor, single point]
COc1ccc(/C=N/NC(=O)c2ccc3nc[nH]c3c2)c(OC)c1 10 µM [inhibitor, full curve, poor fit]
N#CCCn1cc(C(=O)Nc2ccc([N+](=O)[O-])cc2)c(-c2cccs2)n1 79.4 µM [inhibitor, single point]
O=C(Cc1ccc(Cl)cc1)Nc1ncc([N+](=O)[O-])s1 22.4 µM [inhibitor, full curve, poor fit]
O=C1NCCN(Cc2ccc(F)cc2)C1CC(=O)N1CC=C(c2ccccc2)CC1 (configuration not stated) 3.55 µM [inhibitor, full curve]
COC(=O)c1ccccc1NC(=S)NC(=O)COc1ccc(C(C)C)cc1 28.2 µM [inhibitor, full curve]
CN(C)S(=O)(=O)Oc1cccc(C(=O)Nc2ccc(Cl)c(Cl)c2)c1 17.8 µM [inhibitor, partial curve, poor fit]
CC(=O)N1CCN(S(=O)(=O)c2cccc(C(=O)Nc3ccc(OC(F)F)cc3)c2)CC1 100 µM [inhibitor, partial curve]
CCc1ccc(C=C2SC(=S)N(CCCC(=O)Nc3ccc(C(=O)O)cc3)C2=O)cc1 22.4 µM [inhibitor, full curve]
Cc1c(CCOC(=O)c2ccc(N3CCOCC3)c([N+](=O)[O-])c2)sc[n+]1CC#N 100 µM [inhibitor, single point]
CCOC(=O)C1=C(COC(=O)C2(C)CC2(Cl)Cl)NC(=O)NC1c1ccc(OC)cc1 (configuration not stated) 89.1 µM [inhibitor, single point]
Cc1cc(C)c(-n2c(SCC(=O)N3CCOCC3)n[nH]c2=O)c(C)c1 79.4 µM [inhibitor, single point]
Cc1coc2c(C)c3oc(=O)c(CCC(=O)N[C@@H](C)C(=O)N[C@@H](Cc4ccccc4)C(=O)O)c(C)c3cc12 56.2 µM [inhibitor, partial curve]
CCCc1nnc(SCC(=O)NC2CC2)n1CC 50.1 µM [inhibitor, partial curve]
O=C(O)c1cccc2c1-c1ccc(Cl)cc1C2 22.4 µM [inhibitor, full curve, poor fit]
COc1ccc(C(=O)/C=C/Nc2ccc(S(=O)(=O)Nc3cc(OC)nc(OC)n3)cc2)c(OC)c1 89.1 µM [inhibitor, single point]
CCCCC(=O)O[C@H]1CC[C@H]2[C@@H]3CCc4cc(O)ccc4[C@H]3CC[C@]12C 35.5 µM [inhibitor, full curve]
CC1Cc2nc(SCC(=O)OCc3ccccc3)n(C)c(=O)c2S1 (configuration not stated) 89.1 µM [inhibitor, single point]
FC(F)(F)c1ccc(N2CCOCC2)c(Nc2nc3ccccc3n3cnnc23)c1 50.1 µM [inhibitor, partial curve]
Oc1ccc(N=C/C=C/c2cccc(Br)c2)cc1-c1nc2ccccc2s1 56.2 µM [inhibitor, partial curve]
O=[N+]([O-])c1ccc(CNc2cccc(Cl)c2)s1 35.5 µM [inhibitor, partial curve]
COc1ccc(-n2c(SCC(=O)Nc3nccs3)nc3c(c2=O)SC(C)C3)cc1 (configuration not stated) 22.4 µM [inhibitor, single point]

Activity change, negative = inhibition, inconclusive:
O=C(OCC(=O)N(C1CCCCC1)C1CCCCC1)c1ccncc1 -11.7% [inhibitor]

Activity change, negative = inhibition, inactive:
O=C(O)c1cccc(NC2=C(N3CCOCC3)C(=O)c3ccccc3C2=O)c1 -14.7%
O=[N+]([O-])c1cc2no[n+]([O-])c2cc1N1CCCCC1 -8.91%
CCOC(=O)N/N=C\c1cccc(OC)c1OC/C=C/c1ccccc1 -10.8%
CC(C)NC(=O)N1Cc2cc(C(=O)NCC(F)(F)F)nc(-c3cccc(-c4cc5ccccc5o4)c3)c2[C@@H]1CCO 7.65%
CC1CCc2c(C(=O)Nc3ccc(N4CCOCC4)cc3)csc2C1 (configuration not stated) 7.84%
COC(=O)c1ccc(COc2ccccc2/C=C(\C#N)C(=O)Nc2c(C)cccc2C)cc1 -0.804%
CNC(=O)c1oc(-c2ccccc2)nc1C -28.5%
CCCCn1nc(C(=O)NC2CCCCC2)c2ccccc2c1=O -24.7%
CCN(CCn1cccn1)C(=O)CCc1nnc(C2(c3ccc(Cl)cc3)CCC2)o1 4.66%
Cc1cc(C)c(S(=O)(=O)/N=C2\C=C(Nc3ccc(C(=O)O)cc3)C(=O)c3ccccc32)c(C)c1 -4.93%
O=C(NCC(O)c1nc2ccccc2[nH]1)c1cc([N+](=O)[O-])ccc1F (configuration not stated) -5.68%
